# Reference: paper PMC4336329 (PLoS ONE, 2015)
# The whole screen tested about 310,000 compounds, of which about 2,200 (0.71%) showed an effect of 50% or more. The effect is printed as a negative number. The list shows a part of the results.
# Target: human ether-à-go-go-related gene (hERG) potassium channel (human, UniProt Q12809)
# Experiment: primary screen, population patch clamp on CHO cells stably expressing hERG
# Sequence of human ether-à-go-go-related gene (hERG) potassium channel (Q12809 whole entry, looked up): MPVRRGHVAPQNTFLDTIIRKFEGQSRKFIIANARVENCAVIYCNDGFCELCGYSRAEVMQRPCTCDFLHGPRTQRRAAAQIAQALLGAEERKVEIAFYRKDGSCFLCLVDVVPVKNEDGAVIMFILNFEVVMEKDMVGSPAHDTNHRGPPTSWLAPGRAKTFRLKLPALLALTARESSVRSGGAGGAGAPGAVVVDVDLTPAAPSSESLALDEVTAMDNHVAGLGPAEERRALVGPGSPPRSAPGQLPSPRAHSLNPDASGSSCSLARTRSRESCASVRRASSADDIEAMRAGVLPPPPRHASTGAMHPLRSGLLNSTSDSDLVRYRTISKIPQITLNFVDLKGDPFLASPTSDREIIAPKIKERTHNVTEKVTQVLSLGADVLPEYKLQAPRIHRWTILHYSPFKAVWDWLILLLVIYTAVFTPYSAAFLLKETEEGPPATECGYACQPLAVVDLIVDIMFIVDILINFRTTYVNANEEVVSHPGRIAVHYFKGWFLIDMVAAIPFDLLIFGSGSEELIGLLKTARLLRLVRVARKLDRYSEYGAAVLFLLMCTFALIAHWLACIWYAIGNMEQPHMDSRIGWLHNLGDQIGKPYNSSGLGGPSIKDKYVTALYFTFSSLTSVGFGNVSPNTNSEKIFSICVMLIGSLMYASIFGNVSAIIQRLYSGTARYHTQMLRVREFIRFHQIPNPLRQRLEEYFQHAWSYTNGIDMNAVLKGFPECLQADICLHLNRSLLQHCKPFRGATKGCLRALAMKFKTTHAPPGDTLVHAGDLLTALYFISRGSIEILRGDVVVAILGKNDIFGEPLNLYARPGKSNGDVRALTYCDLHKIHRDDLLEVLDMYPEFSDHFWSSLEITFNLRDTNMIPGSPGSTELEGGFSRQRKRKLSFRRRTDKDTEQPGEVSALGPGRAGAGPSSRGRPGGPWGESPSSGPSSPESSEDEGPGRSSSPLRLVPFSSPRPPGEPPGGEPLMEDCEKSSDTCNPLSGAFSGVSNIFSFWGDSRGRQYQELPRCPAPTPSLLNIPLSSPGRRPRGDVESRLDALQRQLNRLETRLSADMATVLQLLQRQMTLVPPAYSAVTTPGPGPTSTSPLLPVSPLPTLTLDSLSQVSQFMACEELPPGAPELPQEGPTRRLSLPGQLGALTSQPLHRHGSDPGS
row,Compound,"hERG current change (%, negative = inhibition) at 1uM [%]"
1,Cn1c(=O)[nH]c(=O)c2c1nc(N(CCO)Cc1ccccc1)n2CCCc1ccccc1,-17.3
2,COc1ccc(Br)c(C(=O)Nc2cccc(S(=O)(=O)N3CCOCC3)c2)c1,8.66
3,COc1cc(Cl)ccc1OCc1cc(C(=O)N(C)Cc2cn(C)nc2C)no1,3.2
4,COc1ccc(CNC(=O)c2c(O)c3ccccc3n(C)c2=O)cc1,5.51
5,N#C/C(=C\c1cc(Br)ccc1F)C(=O)NC1CC1,-11.5
6,O=c1c2ccccc2nc2ccccn12,37.6
7,Cc1ccccc1NC(=O)Nc1ccc2c(c1)CCC2,14.8
8,CC(C)n1cc(/C=C2\NC(=O)N(c3cccc(Cl)c3)C2=O)c2ccccc21,1.55
9,Cc1cccc(-n2c(/C=C/c3ccc([N+](=O)[O-])o3)nc3ccccc3c2=O)c1,2.06
10,CC(C)n1cnc2cc(NCc3nc4ccccc4n3C)ccc21,4.71
11,CC[C@@H](C)CN1C(=O)N[C@@H](c2ccccc2)C(C(C)=O)=C1C,6.22
12,Cc1cccc2c1-c1sc(C(=O)Nc3ccccc3N3CCN(C)CC3)cc1CO2,1.32
13,Cc1ccc([N+](=O)[O-])cc1NC(=O)CCCOc1ccccc1,9.58
14,O=C(Nc1ccc(-c2ccc(N3CCCCC3)nn2)cc1)c1ccco1,11.9
15,NC(=O)C1=C[C@H](c2ccc3c(c2)OCO3)C[C@H](OCc2ccc(CO)cc2)O1,5.97
16,O=C(c1cnc2n(c1=O)CCS2)N1CCN(c2ccccc2F)CC1,-5.24
17,CCC(C)NC(=O)CN(c1ccc2c(c1)OCO2)S(=O)(=O)c1c(C)n[nH]c1C (stereo not drawn),7.3
18,Cl.O=C(COc1ccc(Br)cc1)OCCN1CCCCC1,15.2
19,CC(=O)c1sc(NC(=O)c2ccccc2)nc1-c1ccccc1,7.05
20,Fc1ccccc1C1c2[nH]c3ccccc3c2CCN1CCCn1cccn1 (stereo not drawn),-5.78
21,CCOc1c2ccc(C(=O)N[C@H](C)C3CCCCC3)cc2nn1CCOC,0.662
22,O=C(O)CSCCCC(=O)Nc1ccc(Br)cc1,6.69
23,O=[N+]([O-])c1c2ccccc2cc2ccccc12,8.73

row,Compound,"hERG current change (%, negative = inhibition) at 1uM [%]"
1,O=C(N/N=C/C=C\c1ccccc1)c1cnccn1,-7.39
2,O=c1[nH]c(-c2ccc(F)cc2)nc2c1sc(=S)n2-c1ccccc1,-14.5
3,CC(=O)c1ccc(N2CCN(C(=S)Nc3cccc(Cl)c3)CC2)cc1,4.97
4,O=C(Nc1ccccc1N1CCOCC1)C1CCN(S(=O)(=O)c2cccc(C(F)(F)F)c2)CC1,7.76
5,COc1cc(OC)c(S(=O)(=O)NCc2cccnc2)cc1NC(C)=O,7.19
6,COc1ccccc1N1C(=O)CC(N2CCc3ccccc32)C1=O (stereo not drawn),6.98
7,O=S(=O)(c1ccccc1F)N1CCN(c2nc3ccccc3s2)CC1,12.5
8,O=C(NCc1cccnc1)c1ccc(NC(=O)c2ccc(Br)cc2)cc1,19.6
9,COc1ccc(NC(=O)Oc2ccccc2)cc1Cl,13.5
10,CCOc1ccc(S(=O)(=O)NC2CC2)cc1C(N)=O,6.74
11,Clc1ccc(NC2(c3nnnn3C3CCCCC3)CCCCC2)cc1,12.7
12,Nc1nnc(COc2ccc(Br)cc2Br)s1,6.1
13,CCOC(=O)C(CCCP(=O)(c1ccccc1)c1ccccc1)(NC(C)=O)C(=O)OCC,12.5
14,O=C(C(=O)N1CCOCC1)c1c[nH]c2ccccc12,15.1
15,NNC(=O)Cn1nc(Cc2ccccc2)n(N)c1=O,11.9
16,Cc1cccc(OCC(=O)Nc2ccc(N3CCN(C(=O)c4ccco4)CC3)cc2)c1C,1.53
17,C=CCc1ccc(OCCCNC2CCCC2)c(OC)c1,-8.61
18,CCC(C)Sc1ccc([C@H]2N[C@@](C)(C(=O)OC)[C@H]3C(=O)N(C)C(=O)[C@@H]23)cc1OC.O=C(O)C(F)(F)F (stereo partly drawn),2.05
19,O=C(NC1CCCCC1)c1ccc2c(c1)OCCO2,10.8
20,COc1cccc(Nc2nc(C)nc3c2oc2ccccc23)c1,9.36
21,Cc1occc1C(=O)Nc1cccc(C(=O)O)c1,5.4
22,O/N=C(\c1ccc(Cl)cc1Cl)c1ncc(C(F)(F)F)cc1Cl,15.7
